Data taken from the supplement of paper PMC4967469.
The IC50 comes from the fitted curve, where viability falls to half of the control; where the fit passes the top or lowest dose, that dose stands as a limit. AUC sums up the same curve from the lowest dose to the 256-fold higher top dose; values near 1 show little effect. The top dose, if marked as inferred, comes from the curve model; the source does not state it. For some of these results: An entry number marks a drug with two screens in the source, which often give different values.

Key:
Assay in all cases: Viability of human cancer cell lines after 72 h of drug (GDSC screen)
[1] = compound: C/C=C(/C)C(=O)O[C@H]1C(C)=C2[C@H]([C@@H]1OC(=O)CCCCCCC)[C@@](C)(OC(C)=O)C[C@H](OC(=O)CCC)[C@@]1(O)[C@H]2OC(=O)[C@@]1(C)O [Thapsigargin]; details: top dose 0.512 µM; top dose inferred
Description: (§1)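 Human cancer cell lines in 384-well plates, medium with 10% serum, drug for 72 h over a 256-fold dose range (nine 2-fold or five 4-fold steps up to the top dose). Adherent lines were fixed and stained with the nucleic acid dye Syto60, suspension lines read with resazurin; signal relative to control wells, capped at 0 and 100%. One two-parameter sigmoid per drug and line, fitted in a mixed model over all curves with the slope shared within a line.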

[2] = compound: COc1cc(O)c2c(c1)/C=C/C[C@H](O)[C@H](O)C(=O)/C=C\C[C@H](C)OC2=O [(5Z)-7-Oxozeaenol]; details: top dose 10 µM; top dose inferred
Description: as §1

[3] = compound: COc1cc2ncnc(-n3nc(-c4ccccn4)nc3N)c2cc1OC [CP466722]; details: top dose 16 µM; top dose inferred
Description: as §1

[4] = compound: Cc1cnc(-c2cnc(NCCNc3ccc(C#N)cn3)nc2-c2ccc(Cl)cc2Cl)[nH]1 [CHIR-99021]
Description: as §1

[5] = compound: C=CC(=O)Nc1cc(-n2c(=O)ccc3cnc4ccc(-c5cn[nH]c5)cc4c32)ccc1C [QL-X-138]; details: top dose 10.24 µM; top dose inferred
Description: as §1

[6] = compound: Cc1ccc(F)c(NC(=O)Nc2ccc(-c3cccc4[nH]nc(N)c34)cc2)c1 [ABT-869]; details: top dose 1.024 µM; top dose inferred
Description: as §1

[7] = compound: COc1nc(C)cnc1NS(=O)(=O)c1cccnc1-c1ccc(-c2nnco2)cc1 [Zibotentan]; details: top dose 20 µM; top dose inferred
Description: as §1

[8] = compound: COc1cc(N2CCC(O)CC2)ccc1Nc1cc(Nc2ccccc2S(=O)(=O)C(C)C)c2cc[nH]c2n1 [MPS-1-IN-1]; details: top dose 20 µM; top dose inferred
Description: as §1

[9] = compound: CCn1c(-c2nonc2N)nc2cnc(Oc3cccc(NC(=O)c4ccc(OCCN5CCOCC5)cc4)c3)cc21 [GSK269962A]; details: top dose inferred
Description: as §1

[10] = top dose 2.56 µM, screen: GDSC drug entry 154
[11] = top dose 10 µM, screen: GDSC drug entry 1241, top dose inferred
[12] = top dose 5 µM, screen: GDSC drug entry 1192
[13] = top dose 2.5 µM, screen: GDSC drug entry 127

Cell Line | AUC [1] | IC50 [1] | AUC [2] | IC50 [2] | AUC [3] | IC50 [3] | AUC [4, 10] | IC50 [4, 10] | AUC [4, 11] | IC50 [4, 11] | AUC [5] | IC50 [5] | AUC [6] | IC50 [6] | AUC [7] | IC50 [7] | AUC [8] | IC50 [8] | AUC [9, 12] | IC50 [9, 12] | AUC [9, 13] | IC50 [9, 13]
769-P (kidney, adherent) | 0.454 | 0.0236 µM | 0.662 | 1.85 µM | 0.768 | 6.54 µM | 0.704 | 0.635 µM | 0.862 | 9.84 µM | 0.548 | 0.877 µM | 0.97 | > 1.02 µM | 0.981 | > 20 µM | 0.891 | > 20 µM | – | – | – | –
A204 (rhabdomyosarcoma, adherent) | 0.307 | 0.00777 µM | 0.414 | 0.338 µM | 0.809 | 11.6 µM | 0.916 | > 2.56 µM | 0.854 | > 10 µM | 0.783 | 5.7 µM | 0.786 | 0.589 µM | 0.973 | > 20 µM | 0.903 | > 20 µM | 0.712 | 1.49 µM | – | –
BEN (non-small cell lung carcinoma, adherent) | 0.409 | 0.0174 µM | 0.953 | > 10 µM | 0.844 | 14 µM | 0.986 | > 2.56 µM | 0.985 | > 10 µM | 0.777 | 4.75 µM | 0.986 | > 1.02 µM | 0.976 | > 20 µM | 0.943 | > 20 µM | 0.862 | > 5 µM | – | –
BFTC-909 (kidney, adherent) | 0.245 | 0.00603 µM | 0.558 | 0.899 µM | 0.929 | > 16 µM | 0.984 | > 2.56 µM | 0.953 | > 10 µM | 0.917 | > 10.2 µM | 0.985 | > 1.02 µM | 0.988 | > 20 µM | 0.977 | > 20 µM | 0.799 | 2.34 µM | – | –
BICR31 (head and neck, adherent) | 0.488 | 0.0296 µM | – | – | 0.9 | > 16 µM | 0.987 | > 2.56 µM | – | – | 0.844 | 7.48 µM | 0.979 | > 1.02 µM | 0.988 | > 20 µM | 0.981 | > 20 µM | – | – | – | –
CAMA-1 (breast, adherent) | 0.382 | 0.0139 µM | 0.835 | 9.02 µM | 0.83 | 13.7 µM | 0.983 | > 2.56 µM | 0.977 | > 10 µM | 0.75 | 4.1 µM | 0.975 | > 1.02 µM | 0.983 | > 20 µM | 0.917 | > 20 µM | 0.948 | > 5 µM | – | –
COLO-792 (melanoma, adherent) | 0.619 | 0.0676 µM | 0.662 | 1.75 µM | 0.731 | 4.5 µM | 0.968 | > 2.56 µM | 0.944 | > 10 µM | 0.661 | 1.78 µM | 0.982 | > 1.02 µM | 0.988 | > 20 µM | 0.975 | > 20 µM | 0.73 | 1.39 µM | – | –
COR-L32 (small cell lung carcinoma, suspension) | – | – | 0.839 | > 10 µM | – | – | – | – | 0.954 | > 10 µM | – | – | – | – | – | – | – | – | 0.879 | > 5 µM | – | –
COR-L105 (lung adenocarcinoma, adherent) | 0.322 | 0.00909 µM | 0.706 | 2.75 µM | 0.715 | 4.7 µM | 0.944 | > 2.56 µM | 0.966 | > 10 µM | 0.581 | 1.12 µM | 0.982 | > 1.02 µM | 0.976 | > 20 µM | 0.824 | 15.6 µM | 0.877 | > 5 µM | – | –
COR-L303 (small cell lung carcinoma, suspension) | – | – | – | – | 0.802 | 7.53 µM | – | – | – | – | 0.695 | 2.21 µM | 0.978 | > 1.02 µM | 0.987 | > 20 µM | 0.795 | 8.96 µM | – | – | – | –
COR-L311 (small cell lung carcinoma, suspension) | – | – | – | – | 0.639 | 2.49 µM | – | – | – | – | 0.186 | 0.0672 µM | 0.961 | > 1.02 µM | 0.983 | > 20 µM | 0.828 | 13.5 µM | – | – | – | –
Caov-3 (ovary, adherent) | 0.564 | 0.0469 µM | – | – | 0.789 | 6.14 µM | 0.986 | > 2.56 µM | – | – | 0.743 | 2.85 µM | 0.989 | > 1.02 µM | 0.991 | > 20 µM | 0.909 | > 20 µM | – | – | – | –
ECC12 (stomach, suspension) | – | – | – | – | – | – | 0.979 | > 2.56 µM | – | – | – | – | – | – | – | – | – | – | – | – | 0.969 | > 2.5 µM
GCT (soft tissue, adherent) | 0.214 | 0.00499 µM | 0.5 | 0.624 µM | 0.954 | > 16 µM | 0.63 | 0.355 µM | 0.928 | > 10 µM | 0.972 | > 10.2 µM | 0.987 | > 1.02 µM | 0.989 | > 20 µM | 0.987 | > 20 µM | 0.368 | 0.139 µM | – | –
GP5d (large intestine, adherent) | 0.513 | 0.0346 µM | 0.74 | 2.77 µM | 0.851 | 10.3 µM | 0.99 | > 2.56 µM | 0.923 | > 10 µM | 0.872 | 7.99 µM | 0.891 | 0.97 µM | 0.984 | > 20 µM | 0.885 | 17.8 µM | 0.978 | > 5 µM | – | –
H2803 (mesothelioma, adherent) | 0.571 | 0.0517 µM | 0.725 | 3.06 µM | 0.882 | > 16 µM | 0.972 | > 2.56 µM | 0.956 | > 10 µM | 0.886 | > 10.2 µM | 0.976 | > 1.02 µM | 0.976 | > 20 µM | 0.961 | > 20 µM | 0.976 | > 5 µM | – | –
